In the supplement of paper PMC12217912:
Some of the results follow. The full chains were built here from the parent and the listed change. Inactive controls read about 0.05.

B1: TEV protease; numbered along this chain (parent)
chain: MGESLFKGPRDYNPISSSICHLTNESDGHTTSLYGIGFGPFIITNKHLFRRNNGTLVVQSLHGVFKVKDTTTLQQHLVDGRDMIIIRMPKDFPPFPQKLKFREPQREERICLVTTNFQTKSMSSMVSDTSCTFPSGDGIFWKHWIQTKDGQCGSPLVSTRDGFIVGIHSASNFTNTNNYFTSVPKNFMELLTNQEAQQWVSGWRLNADSVLWGGHKVFMVKPEEPFQPVKEATQL

Variants of: B1
Test: raw area under fraction-flipped curve 0-4 h after induction (AUC4h, not background-subtracted), DNA-recorder readout of cleavage of the substrate (dimensionless); higher = more cleavage of the substrate by the protease variant
Settings: temperature: 34 °C; time window: 0-4 h after rhamnose induction
Method: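 In vivo DNA recorder in E. coli TOP10(DE3) ΔrhaA at 34 °C. Each TEVp single-site mutant (parent TEVp 0) is paired with a single-site variant of the 7-mer TEVs (canonical ENLYFQ|S). The substrate sits between flexible linkers in a Bxb1-sfGFP-TEVs-SsrA fusion, so cleavage stabilises Bxb1 and speeds flipping of a recombination array, read by NGS. The value is the raw area under the fraction-flipped curve over 0-4 h after rhamnose induction (AUC4h), with ≥20 reads per time point. It is not background-subtracted; inactive controls average about 0.047.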
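Also: Bxb1 expression induced with 0.2% (w/v) L-rhamnose at OD600 near 0.5, cultures sampled hourly, flipped fraction per protease–substrate barcode pair counted by paired-end Illumina sequencing.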

Variant | area with substrate ENLYFAS | area with substrate ENLYFCS | area with substrate ENLYFDS | area with substrate ENLYFES | area with substrate ENLYFFS | area with substrate ENLYFGS | area with substrate ENLYFIS | area with substrate ENLYFKS | area with substrate ENLYFMS | area with substrate ENLYFNS | area with substrate ENLYFPS | area with substrate ENLYFRS | area with substrate ENLYFSS | area with substrate ENLYFTS | area with substrate ENLYFWS | area with substrate ENLYFYS | area with substrate ENLYFHS | area with substrate ENLYFVS | area with substrate ENLYFLS
I36F | 0.0223 | 0.0538 | 0.0236 | 0.0422 | 0.0624 | 0.0692 | 0.0508 | 0.0451 | 0.0659 | 0.0608 | 0.0552 | 0.0388 | 0.0586 | 0.0506 | 0.0548 | 0.0505 | – | – | –
M83K | 0.0382 | 0.0336 | 0.0547 | 0.0584 | 0.046 | – | 0.0452 | 0.0541 | 0.0329 | 0.046 | 0.0402 | 0.0542 | – | – | – | – | 0.0606 | 0.0434 | –
M83G | 0.0382 | 0.0416 | 0.0609 | – | 0.0621 | – | 0.0512 | 0.0482 | 0.0523 | – | 0.052 | – | – | 0.0502 | – | 0.0535 | – | – | 0.044
D79H | 0.0679 | – | – | 0.055 | 0.058 | 0.0638 | 0.0501 | – | – | – | – | 0.0523 | 0.0579 | 0.0518 | 0.0609 | 0.0929 | 0.0425 | – | –
K68C | 0.0661 | – | 0.0277 | 0.0585 | 0.0586 | 0.0675 | 0.063 | 0.0177 | 0.0678 | – | 0.0878 | 0.0528 | 0.0461 | 0.0195 | 0.0556 | 0.0337 | 0.0422 | 0.0535 | 0.0528
Q74R | 0.0594 | – | – | – | 0.0613 | – | 0.0637 | – | 0.0621 | 0.0635 | 0.0437 | 0.0584 | 0.0569 | 0.0491 | – | 0.0569 | – | – | 0.0618
V58F | 0.0642 | 0.0351 | – | – | 0.0625 | 0.0563 | 0.061 | 0.0478 | – | 0.0599 | 0.0565 | 0.0561 | – | – | – | – | – | 0.0524 | –
F65M | 0.0523 | 0.0572 | 0.0652 | 0.0617 | 0.0608 | – | 0.0521 | 0.11 | 0.0623 | 0.0647 | 0.0693 | 0.0676 | – | – | 0.0711 | – | 0.0697 | 0.066 | –
T31S | 0.0587 | 0.05 | 0.0542 | 0.0673 | 0.0599 | 0.0458 | 0.0491 | 0.0692 | 0.0787 | 0.0589 | 0.0587 | 0.0539 | – | – | 0.0528 | 0.0502 | – | 0.0929 | 0.057
L73S | 0.0529 | 0.07 | – | 0.0367 | – | – | 0.048 | 0.0613 | – | 0.0609 | 0.0476 | 0.0818 | 0.0603 | 0.0398 | – | 0.0646 | 0.0518 | 0.0578 | 0.0439
L73W | 0.0593 | – | – | – | – | – | 0.0672 | – | – | 0.0761 | 0.0681 | – | – | 0.0683 | – | 0.0575 | 0.0596 | 0.0463 | –
L73T | 0.0505 | 0.0535 | – | – | 0.0465 | – | 0.0492 | 0.0453 | 0.0567 | 0.0404 | 0.056 | 0.0178 | – | 0.0588 | – | 0.05 | 0.0547 | 0.0514 | 0.06
H47P | 0.0399 | – | – | – | 0.077 | – | 0.0764 | 0.0628 | 0.0722 | 0.0488 | 0.0644 | – | 0.0556 | 0.0502 | 0.047 | – | – | – | 0.0705
H47M | 0.0306 | 0.0542 | – | 0.0548 | 0.0659 | – | 0.0512 | 0.0602 | 0.0483 | 0.06 | 0.0598 | 0.0512 | 0.0565 | 0.0598 | 0.0592 | 0.0551 | 0.0592 | 0.0474 | 0.0706
L61E | 0.056 | 0.0633 | 0.0548 | 0.0512 | 0.0632 | – | 0.0684 | 0.066 | 0.0684 | 0.043 | 0.0766 | – | 0.0521 | 0.0516 | – | – | 0.0389 | – | –
R50E | 0.0661 | 0.0621 | – | 0.0764 | 0.0633 | 0.0551 | 0.0474 | 0.0818 | 0.0659 | 0.0465 | 0.062 | – | – | 0.0587 | 0.0506 | 0.0486 | 0.077 | 0.0566 | 0.0517
R51F | 0.0796 | 0.0622 | – | 0.0904 | 0.0692 | 0.0635 | 0.0613 | – | 0.0722 | 0.0575 | 0.0465 | – | – | – | 0.0441 | – | 0.0588 | 0.0492 | –
S60R | 0.0442 | 0.0549 | – | – | 0.0741 | 0.0552 | 0.0626 | 0.0515 | 0.0743 | 0.0586 | – | – | 0.0421 | 0.0549 | 0.0524 | – | – | – | –
S60M | 0.0586 | 0.0496 | – | 0.0581 | 0.0627 | 0.0593 | 0.0632 | 0.0453 | 0.0676 | – | 0.0536 | 0.064 | – | 0.0619 | 0.0568 | – | 0.0544 | – | –
S60P | 0.0485 | 0.043 | – | – | 0.054 | 0.0587 | 0.0511 | 0.0517 | 0.0473 | 0.0292 | 0.0512 | 0.0279 | – | 0.047 | 0.0366 | 0.0558 | 0.0272 | – | 0.044
L33G | 0.0694 | – | 0.0604 | 0.0764 | 0.0677 | – | 0.0607 | 0.0614 | 0.0603 | – | 0.0602 | – | 0.0544 | – | 0.0613 | 0.0577 | 0.0411 | – | –
L33W | 0.0619 | 0.0531 | – | 0.0619 | 0.0677 | 0.0725 | 0.0622 | 0.0493 | 0.0609 | 0.0533 | 0.0644 | 0.0711 | 0.0607 | 0.0521 | 0.0644 | 0.0474 | 0.0546 | 0.0533 | 0.0566
T70G | 0.0591 | 0.055 | – | 0.0772 | 0.0728 | – | 0.0481 | 0.0573 | 0.0564 | 0.0504 | 0.0686 | – | 0.0486 | 0.0658 | 0.0579 | – | – | – | 0.0754
T70H | 0.0634 | 0.058 | – | – | 0.0642 | – | 0.0592 | 0.0742 | 0.0509 | 0.0709 | 0.0672 | 0.0589 | – | – | – | 0.0343 | – | – | –
D69T | 0.0461 | 0.0532 | 0.0529 | – | – | 0.0646 | 0.0538 | 0.0554 | 0.0579 | 0.0709 | 0.0543 | 0.0585 | 0.0548 | 0.0462 | 0.0584 | – | – | 0.0443 | 0.0549
N45C | 0.0594 | 0.0631 | 0.0511 | 0.0599 | 0.0764 | – | 0.0507 | – | 0.0637 | 0.0675 | 0.0689 | 0.0478 | – | 0.062 | 0.0713 | – | 0.0654 | – | 0.0654
